The source gives no read counts; variants with many changes may rest on few reads.
B1: LINE1-mini (parent)
chain: GGCAGAGCUCAACACAGCGUGGCAAAGUGGCUGUGGCUAGACUGCC

Variants of: B1
Assay: self-cleavage, relative activity (ratio to wild type); higher = more cleavage; in vitro, sequencing; the parent is a self-cleaving ribozyme

Variant | self-cleavage
G19A G21U C45A | 0.26
C10A C18G A26U | 0.05
G2A C3A A6U G36U G40U C45U | 1.31
U9C C10G C15U C46U | 0.02
C8G C10G A26C | 0.03
G1A A14C G33U | 0.02
C8G U20G C23U | 0.27
G5A G33U C42G U43C | 0.02
A12U G21C C37G U43A | 0.03
C15U A16U C42A | 0.22
C8G G17C C46U | 0.02
A6U A16C G21C A26U G35C U38C | 0.02
G5U A16U U20A | 0.01
C10A A16U U20A C42U | 0.01
G1A C10A C15A | 0.09
A24C U34A C46U | 0.07
C3G G30U G36U | 0.62
A6U G30A U34A G40U A41G | 0.04
C15G G27C U32A U43C | 0.08
C23G C37A A41C | 0
C13G G19U G22C | 0.22
G2U C10G U38G | 0
C10U G17U G36C | 0.03
G29A C37G C42G | 0.01

Variant | self-cleavage
A6U C23G G29U | 0.19
U9C G22U A39U | 0.01
U9C C10A G29A | 0.02
C8A U9C A12G G36U G40A | 0.08
G21A U28G U34A U38G C45G | 0.04
G5U U28G G36C | 0.01
C18U G36U C45A | 0.05
G5U G19U G22U | 0.03
A16U A26C G29A G30A C31A U34A | 0.01
G1U U20C U43A | 0.01
A14U A26U C37G | 0.03
A4C C8G A11G C37A G44U | 0
G7U G22C A39C | 0.07
G2C C3U C23G G44U | 0.21
G5A A26G C46A | 0.02
A11G A25U G29U | 0.02
A4U C13A G17U G36U U38A | 0.05
A6G C31A C37A | 0.02
A16G G22C C31U | 0.02
G5A G7A G44U | 0.53
C8U G19A A24G C31A U34G U43A | 0.17
G7U C8U C37A | 0.39
G7C G22C C31U | 0.04
G5U C13U C31A | 0.02

Variant | self-cleavage
U34A A39G G40C | 0.05
C18G C37A U38C C46A | 0.04
G30A G33U G40C | 0.11
C10A C13U C42G | 0.02
A14U G19C A25U | 0.09
C3U G36A A41G | 0.13
G2U A4U A11U C18G | 0
G5C C8G U34C | 0.13
A6C C15A G19U U20A C46A | 0.03
A12U C23G A25G G29A G30U C42U | 0.01
A14C C18U U20C C31A | 0.02
U20G G22A C37G U38C | 0.01
G2U A11U A14G G40C U43G | 0.01
G2C C8G A25G A39U | 0.11
U20G A25G C31A G36C | 0.08
U9A G27A A41U | 0.17
A24G U28A G33C | 0.15
G1A G7U U9C C10A C18G G29U C45G | 0.03
A12G C23G C42U | 0.03
A12U C18A C23U G30C G36U | 0.03
C8U U20A C42A | 0.1
U9A U28A G44C | 0.04
C15U U20G A41U | 0.29
G2A A6U G30C G35U | 0.15

Variant | self-cleavage
G1U G5A U32A G35U A41G | 0.03
A4U C8G A16G G17A C18A C23A C37A U38C A41U | 0.12
G2U G21U G30A G40A | 0.04
G1C C3G C18G G29U U34C | 0.02
C8G A16C G27A C37A C42A | 0.01
A6C G40U C45U | 0.04
G5U C23A A41U | 0.12
G36C U38G C45U C46U | 0.03
G1U C13U A14U G19C C42G | 0.04
C8U A12C C18A C42U | 0.06
G21U U32A C46G | 0.37
G2A C13U G33C | 0.06
U9C C13A A14U | 0.07
G7A A12C U34G U43G C45U | 0
A4C C10A G33U | 0.03
A11C G30C G36U | 0.01
C18U G30A C31A C42A C45U | 0.04
G5A C15A A16U C18A A25U G35C | 0.02
C3U G5U G36C | 0.03
C8U G19A C42A | 0.1
U20G A26C G27C A41C | 0.02
G17U C23A G27A C31A A39G G40C | 0.02
G7U C8G G19A | 0.78
G21A G22A G27U | 0.62

Variant | self-cleavage
A14G G17U C18A G19A U20C A26C A39C | 0.01
A6U A24C A25G G27C | 0.71
C15U U32C G33U A41G | 0.07
A11C G21U C37U | 0
C15G G36A C37A C42G | 0.04
A6C A25C U28A C31G G40U | 0.02
C8U U20C G21U C45A C46G | 0.03
A6U A12C G27C | 0
G5U A24G C37U C46A | 0.03
C13A G19C G22C U32C | 0.03
G5A C15U U34A | 0.25
C8U A16U C46A | 0.14
C3G U9A G29A C31G | 0.11
C18U U32A U38C | 0.04
C3A C10A G17U G44A | 0.06
C13A C18G G19C A39C | 0.03
C10A C31G U32C G36U C37A C46A | 0.01
G5C C37G G40A | 0.12
G2A C31U G36C G40U | 0.08
C3U A26U G30C | 0.2
A25G U28C G29U G44U | 0.02
A14C C31U U32A C37A | 0.17
C8G C18G G22C U32C | 0.02
A14G A39G A41G C46U | 0.02

Variant | self-cleavage
A6U U32C A39U | 0.11
G5U G22C A25U A39G | 0
C3A A4C C37G | 0.08
G5C U20G G35C | 0.17
G2A A6C A16C G17U | 0.21
A6U U20A U28A G40U | 0.06
C18U G22C C31U | 0.08
A12G A16U G17A | 0.27
A11C A25C U38C | 0.05
G1A G30C G35C | 0.08
U9G C10G G19A G27U G29C G40U C46A | 0
G35C U38A C45G | 0.02
G5U G22U A26C U34A A41U U43C | 0.05
U9G C15A G35U | 0.05
C3A A14G C15A C18U G30U | 0.03
A16U C31G C46A | 0.06
G17C A39U A41U | 0.26
C3G C10U G29A | 0.11
A11U G21U C31A G44U | 0.01
U9C A16C G17A G40A | 0.01
G7C U20G A25G | 0.06
A14G G17U G19C U20A G22C G40U | 0.1
A14C G19U G35U U38G | 0.02
G1C C10A C13A | 0

Variant | self-cleavage
A11C G35U C45G | 0.01
G2C U9G A12G G19C A25C U38G | 0.03
G1A C23U G27A U38G | 0.01
C18A U20G C31U | 0.14
G1A G21C U38A | 0.98
G5A C8G G29U G30A | 0.07
G2U C3G G29C | 0.43
G2U C8G A12U C13U | 0.07
G22U G36C G40A | 0.12
G17A G21U A26U G40C C45G | 0.07
A6C C10G A11G G27A | 0.02
G19U G21C G27U U28G G29A C42G | 0.06
G2U C3G G19A | 0.2
G17U G22C G29C G30C | 0.06
A4U U38G G40C | 0.03
C10A G17C A41C | 0.01
G1U U9G C13U | 0.05
G17C A25U G33C U38G | 0.02
A11U A24G C31G | 0.01
U9G G19C C37U | 0.17
C3A A4C G5C | 0.34
C8G C10U A16U | 0.05
G1C C13A G35U | 0.13
